# Laboratory results: PMC7819943, “Rice protein-binding microarrays: a tool to detect cis-acting elements near promoter regions in rice”
# Some of the results follow.
# Target: T1, OsWOX13 (Oryza sativa, UniProt Q5QMM3 1-267)
# T1 sequence: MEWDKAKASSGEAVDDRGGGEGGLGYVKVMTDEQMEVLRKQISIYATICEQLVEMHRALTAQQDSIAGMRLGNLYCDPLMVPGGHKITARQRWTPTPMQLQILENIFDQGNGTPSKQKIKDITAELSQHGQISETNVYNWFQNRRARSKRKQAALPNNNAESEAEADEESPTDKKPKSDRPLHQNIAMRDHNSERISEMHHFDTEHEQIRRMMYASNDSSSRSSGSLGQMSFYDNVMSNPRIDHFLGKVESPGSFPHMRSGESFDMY
# Assay: protein-binding microarray (RPBM); PBS, 2% BSA, 51.3 ng/ul salmon testes DNA, 50 uM zinc acetate, 200 nM TF, 25 C, 1 h; high values mean tight binding
# Details: protein: recombinant; tags: N-terminal polyhistidine and DsRed monomer fusion (pET32a); label: CyDye5-dUTP incorporated in the synthesized complementary strand; 3' TTTTT single-stranded linker to array surface; dsDNA, one strand shown
# Summary of the method: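 The binding signal is fluorescence intensity per feature, in arbitrary units, read on an Axon 4000B scanner. Polyhistidine- and DsRed-tagged transcription factors (N-terminal fusions) from E. coli BL21-CodonPlus were purified on Ni–NTA and applied at 200 nM for 1 h at 25 °C to a double-stranded, BSA-blocked custom Agilent array in buffer with 50 µM zinc acetate.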
row,Sequence,binding signal
1,ACTGAGGTGATTAAAGAAACTCTTTTAATCACCTAGGTGGCGGAGTCACCTAGTGCAG,6320 fluorescence intensity (a.u.)
2,ACTTGATTTCTCTGTTGGAAGATGGGTATATTTCGAGACCCGGAGTCACCTAGTGCAG,17200 fluorescence intensity (a.u.)
3,GGGATTGTTGACTGATAAAGCTGGATTTGAAGAAACAACACGGAGTCACCTAGTGCAG,12800 fluorescence intensity (a.u.)
4,ATATATACCAATGATTGTGTCGACATTATATTGCACACTACGGAGTCACCTAGTGCAG,4320 fluorescence intensity (a.u.)
5,CAGGATAGACTGCTTATAATGCAAACCGATAAAGATGAACCGGAGTCACCTAGTGCAG,9400 fluorescence intensity (a.u.)
6,TAGCATATAATTATAAATGTAACTTAGGTGTAAATTATATCGGAGTCACCTAGTGCAG,9360 fluorescence intensity (a.u.)
7,TTCCCATCTTAATCTCATCATCAATTCCCTCGTGTAAACTCGGAGTCACCTAGTGCAG,4180 fluorescence intensity (a.u.)
8,TAGCTAATATTTAATTAATCACGCGTTAATGCGAACATCGCGGAGTCACCTAGTGCAG,18300 fluorescence intensity (a.u.)
9,TGGTGTCAAACTGTCAATAATGAAGCAGTGGAGCGCTGGACGGAGTCACCTAGTGCAG,4240 fluorescence intensity (a.u.)
10,AGAAGTAAGGTGATGATTTGACAAGACCACAGCTAATCAACGGAGTCACCTAGTGCAG,4580 fluorescence intensity (a.u.)
11,CAACGCCATAATTGGGGACATCGACAGAGTAGTTACGTGTCGGAGTCACCTAGTGCAG,12100 fluorescence intensity (a.u.)
12,TTTGATTGATTCATCGTTCTCTCATTTGACTTCATTGCTACGGAGTCACCTAGTGCAG,38600 fluorescence intensity (a.u.)
13,TATATTGGAATTTATTAATTAAAATTAGATCTTCTCTTCACGGAGTCACCTAGTGCAG,12600 fluorescence intensity (a.u.)
14,TTATGATTGTATATACCGTTTTCAAACGATTTTATGGTTGCGGAGTCACCTAGTGCAG,33500 fluorescence intensity (a.u.)
15,AGTAAATTGGTGTATGATTAGATTAACATGTTAAATGTATCGGAGTCACCTAGTGCAG,53500 fluorescence intensity (a.u.)
16,TATTGTCCAAAATGATAATTATTTTCAATCCGGAGGAAGTCGGAGTCACCTAGTGCAG,4920 fluorescence intensity (a.u.)
17,GCCGACTGATTGCGGTTGTCCCATTGGAGATTGAGGTAATCGGAGTCACCTAGTGCAG,31800 fluorescence intensity (a.u.)
18,GAATTTATTGATTACAAAGAACAGGGACTCTTGTCACGAACGGAGTCACCTAGTGCAG,11200 fluorescence intensity (a.u.)
19,GGTATTTATACAGATGATAGATAACTATTTATACGAATGACGGAGTCACCTAGTGCAG,5490 fluorescence intensity (a.u.)
20,GTTAATTTAGATGCAGTTATGTATATAAACTGTTCGTGGCCGGAGTCACCTAGTGCAG,31800 fluorescence intensity (a.u.)
21,CCCAATTAGATGTCTTGTGTTGGGTTAGGCCCACTTGAACCGGAGTCACCTAGTGCAG,4070 fluorescence intensity (a.u.)

row,Sequence,binding signal
1,CCGTGATAAATAAACGGACTGAAGGAGGAGGCGGCATGCACGGAGTCACCTAGTGCAG,3810 fluorescence intensity (a.u.)
2,TTCATTAATCACAGATTCAATTTGCTCCTATATATAATCCCGGAGTCACCTAGTGCAG,12700 fluorescence intensity (a.u.)
3,CTGTTGACAGTGAAAATTATGCTTTGGCAGCTGCACTGCGCGGAGTCACCTAGTGCAG,20900 fluorescence intensity (a.u.)
4,ATAGCAGCTGTCATCTCCAAATCATTGGAAGCCGGCCTCACGGAGTCACCTAGTGCAG,5440 fluorescence intensity (a.u.)
5,TGTTTCTGATCGTGATTAATGGTACGGTGGCTCAAACCATCGGAGTCACCTAGTGCAG,10400 fluorescence intensity (a.u.)
6,AGTACTAATTAATCAGCTAGCAGTAGATGACAGTAGCTAGCGGAGTCACCTAGTGCAG,18400 fluorescence intensity (a.u.)
7,AGTTTAACTCACTCCAGTGATTAGGCCAGCAGATGGAGTGCGGAGTCACCTAGTGCAG,5690 fluorescence intensity (a.u.)
8,TTTGTCAGGATCATAATTATTGATGAATAGTTTATTTAGACGGAGTCACCTAGTGCAG,13400 fluorescence intensity (a.u.)
9,TTTGATCGATCGATCAATTAGCTCGATCTCCATTAACAAGCGGAGTCACCTAGTGCAG,11200 fluorescence intensity (a.u.)
10,TAAATAAAACAATTAGCACTAGTGAGTGGTTTTCTCTTGACGGAGTCACCTAGTGCAG,3950 fluorescence intensity (a.u.)
11,AAGGATTAATCGTGCCCTTGATTTGTATGATGAGTTCCGTCGGAGTCACCTAGTGCAG,22700 fluorescence intensity (a.u.)
12,CCTGCCAATTATAGTGGTCATTTCTCTAGGGACGGACTGGCGGAGTCACCTAGTGCAG,6700 fluorescence intensity (a.u.)
13,GCTTTGTTTTGTTGATTGATATAGGTATGGATTGAATTCTCGGAGTCACCTAGTGCAG,23000 fluorescence intensity (a.u.)
14,ACTGCATTATCGGTGATTACCTAAGTTACCATTTCATAGTCGGAGTCACCTAGTGCAG,8680 fluorescence intensity (a.u.)
15,TTTAAATTAGGATAAATCCATTTGACCTTCCCTCAGCTGGCGGAGTCACCTAGTGCAG,5980 fluorescence intensity (a.u.)
16,GAATTACGTGTATAATTTAATTTAGAATTTTCGATGATATCGGAGTCACCTAGTGCAG,3880 fluorescence intensity (a.u.)
17,TCAATTTCAATCAAACTTTCAATTTTGACGTGAACACGTTCGGAGTCACCTAGTGCAG,36900 fluorescence intensity (a.u.)
18,TGAATAATTGACAATTTAACCAGACCATTAATTAATTGTTCGGAGTCACCTAGTGCAG,62400 fluorescence intensity (a.u.)
19,GGCCTCTTTGATTTGTATAAATTTTGGAGGATTTCAATCCCGGAGTCACCTAGTGCAG,24000 fluorescence intensity (a.u.)
20,CAGATAATTTATTCAAGGTGCATCTTAGGGATGTTTGTTTCGGAGTCACCTAGTGCAG,33200 fluorescence intensity (a.u.)
21,GGCAGTGACTAATTAACCTCACGGATGACAGGCGGCGAAACGGAGTCACCTAGTGCAG,10300 fluorescence intensity (a.u.)
